{
  "source": "PubChem BioAssay AID2546",
  "about": "(National Center for Advancing Translational Sciences (NCATS), 2010)",
  "note": "Screen size: about 310,000 compounds; about 11,000 (3.5%) were called active. The shares of active, inactive and inconclusive entries below differ from those in the screen. Calls follow the shape of the dose curve; as a rule, active = well fitted inhibition curve with a large enough effect; inconclusive = small, poorly fitted or top-dose-only effect, or effect the other way; inactive = flat fitted curve, though single readings scatter. No potency is given beside an inconclusive call; the fits are too rough. % is scaled to controls: 0 for no effect and ±100 for the full control effect; potency is read from the fitted curve at half-maximal effect; tags tell the direction and shape of the fitted curve.",
  "data": [
    {"test": "VP16 counterscreen qHTS for inhibitors of ROR gamma transcriptional activity;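 also: Gal4-VP16 expression switched on by copper sulfate through the metallothionein promoter; nearly all actives have a fitted effect of over 50% in size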", "conditions": "Drosophila S2 Gal4-VP16 UAS-luciferase, luminescence, 20 h; activity, negative = inhibition: at 53.6 µM (top of the series)", "values": [
      {"smiles": "COc1ccc(-c2c(C)[nH]n3c(=O)c(Cc4ccccc4)c(C)nc23)cc1OC", "Potency": "inconclusive [inhibitor, single point]"},
      {"smiles": "O=C(CCl)N1N=C(c2cccs2)CC1c1ccco1", "note": "(configuration not stated)", "Potency": "inconclusive [inhibitor, single point]"},
      {"smiles": "COc1cc2c(c(OCC(=O)NC(C)C)c1)C(=O)O[C@@H](C)CCCC(=O)CCCCC2", "activity, negative = inhibition": "inactive: 12.8%"},
      {"smiles": "Cc1cccc(N2CCN(C(=O)c3cccn4c(=O)c5c(C)c(C)sc5nc34)CC2)c1C", "activity, negative = inhibition": "inactive: 2.48%"},
      {"smiles": "COc1ccc(-c2nnc(SCC(=O)c3ccc[nH]3)o2)cc1", "Potency": "inconclusive [inhibitor, full curve]"},
      {"smiles": "COc1ccc(-n2nnnc2-c2cnc(N3CCCC3)nc2C(F)(F)F)cc1", "Potency": "inconclusive [inhibitor, single point]"},
      {"smiles": "CCOC(=O)Cc1csc2nc(-c3ccccc3)nn12", "Potency": "inconclusive [activator, partial curve]"},
      {"smiles": "COc1ccc(NS(=O)(=O)c2ccc3nc(COc4ccc(Cl)c(C)c4)[nH]c3c2)cc1", "Potency": "inconclusive [inhibitor, single point]"},
      {"smiles": "CCC(=O)NC(=S)Nc1ccc(OC)cc1OC", "Potency": "inconclusive [inhibitor, single point]"},
      {"smiles": "N#CC(c1ccc(Cl)cc1)c1ccc2c(C(F)(F)F)cc(C(F)(F)F)nc2n1", "note": "(configuration not stated)", "Potency": "inconclusive [inhibitor, single point]"},
      {"smiles": "CCNC(=O)NC(=O)C(C)On1nnc2ccc(S(=O)(=O)N(CC)CC)cc21", "note": "(configuration not stated)", "activity, negative = inhibition": "inactive: 4.96%"},
      {"smiles": "COc1ccc(C(=O)N/N=C(\\C)CC(=O)Nc2cccc(C(F)(F)F)c2)cc1", "Potency": "inconclusive [inhibitor, single point]"},
      {"smiles": "Nc1c(C(=O)Nc2ccccc2)nnn1-c1ccc2c(c1)OCCO2", "Potency": "inconclusive [inhibitor, single point]"},
      {"smiles": "COc1cccc(Nc2nc3ccccc3nc2NS(=O)(=O)c2cccs2)c1", "Potency": "inconclusive [inhibitor, partial curve]"},
      {"smiles": "CC(=O)Nc1ccc(OCC(O)Cn2c(C(C)C)nc3ccccc32)cc1", "note": "(configuration not stated)", "activity, negative = inhibition": "inactive: 4.41%"},
      {"smiles": "c1csc(-c2nc(NCC3CCCO3)c3ccccc3n2)c1", "note": "(configuration not stated)", "activity, negative = inhibition": "inactive: -16.3%"},
      {"smiles": "OC(COc1cccc2ccccc12)CN1CCN(c2ccccc2)CC1", "note": "(configuration not stated)", "Potency": "inconclusive [inhibitor, single point]"},
      {"smiles": "COc1cc(C(=O)Oc2c(CN3CCOCC3)cc(Cl)c3cccnc23)cc(OC)c1OC", "Potency": "active: 2.51 µM"},
      {"smiles": "CC1(C)CC(N=c2cc(-c3ccccc3)oc3ccc(Cl)cc23)CC(C)(C)N1", "Potency": "inconclusive [inhibitor, single point]"},
      {"smiles": "Cc1ccc(C(=O)NC2CCCc3ccccc32)o1", "note": "(configuration not stated)", "activity, negative = inhibition": "inactive: 1.29%"},
      {"smiles": "NS(=O)(=O)c1ccc(CCNC(=O)c2cc(-c3ccc(Br)cc3)nc3ccccc23)cc1", "Potency": "inconclusive [inhibitor, single point]"},
      {"smiles": "CCOc1ccc(NC(=O)C2C(c3ccccc3)C2(Cl)Cl)cc1", "note": "(configuration not stated)", "activity, negative = inhibition": "inactive: 2.01%"},
      {"smiles": "CC1Oc2ccccc2N(CC(=O)NCC2CCCO2)C1=O", "note": "(configuration not stated)", "activity, negative = inhibition": "inactive: -0.587%"},
      {"smiles": "Cc1ccc(NC(=S)NNC(=O)c2ccc(N3CCOCC3)c([N+](=O)[O-])c2)cc1Cl", "Potency": "active: 12.6 µM"},
      {"smiles": "CCCCc1nn(-c2cc(Cl)ccc2OC)c2c1C(=O)CCC2", "Potency": "inconclusive [inhibitor, single point]"},
      {"smiles": "CCc1cc(=O)oc2c(C)c(OCC(=O)N3CCCc4ccccc43)ccc12", "Potency": "inconclusive [inhibitor, single point]"},
      {"smiles": "O=C(CSc1nc2ccccc2s1)NCCOc1ccccc1", "Potency": "inconclusive [activator, single point]"},
      {"smiles": "Cc1ccc(-c2nc(C#N)c(N3CCC(C(N)=O)CC3)o2)cc1", "activity, negative = inhibition": "inactive: -3.65%"},
      {"smiles": "COc1ccc(-c2nc(-c3cccc(C)c3)no2)cc1OC", "Potency": "inconclusive [inhibitor, partial curve]"},
      {"smiles": "Cc1ccc(CNc2ccc(N3C(=O)CC(C)C3=O)cc2[N+](=O)[O-])cc1", "note": "(configuration not stated)", "Potency": "inconclusive [inhibitor, single point]"},
      {"smiles": "CCOC(=O)c1oc2ccccc2c1N", "Potency": "inconclusive [inhibitor, single point]"},
      {"smiles": "COc1ccc(C(=O)OCC(=O)c2ccc(C)c(S(=O)(=O)N3CCOCC3)c2)cc1OC", "Potency": "inconclusive [inhibitor, single point]"},
      {"smiles": "COc1ccccc1N(CC(=O)N/N=C/c1c(O)ccc2ccccc12)S(C)(=O)=O", "Potency": "inconclusive [inhibitor, single point]"},
      {"smiles": "Cc1nn(CCC(=O)NNC(=S)Nc2ccccc2)c(C)c1Br", "Potency": "inconclusive [inhibitor, partial curve]"},
      {"smiles": "Cc1ccc2c(c1)Oc1ccc(NC(=O)CCl)cc1C(=O)N2", "Potency": "active: 17.8 µM"},
      {"smiles": "O=C(Nc1cccc(-c2cn3ccccc3n2)c1)c1ccccc1", "activity, negative = inhibition": "inactive: -5.8%"},
      {"smiles": "O=C(Nc1ccc(-c2nc3ccccc3[nH]2)cc1)c1ccc2c(c1)OCO2", "Potency": "active: 11.2 µM"},
      {"smiles": "O=C(NC(Cc1ccccc1)C(=O)O)/C(=C/c1ccc([N+](=O)[O-])cc1)NC(=O)c1ccccc1", "note": "(configuration not stated)", "activity, negative = inhibition": "inactive: -10.3%"},
      {"smiles": "O=C(Nc1ccccn1)c1onc2c1CCCC2", "Potency": "active: 8.91 µM"},
      {"smiles": "COc1ccc(OC)c2nc3c(cc12)CCC3", "Potency": "inconclusive [inhibitor, single point]"},
      {"smiles": "Cc1c(C(=O)N2CCCC2)c(S(=O)(=O)NCCc2ccccc2)c(C)n1C", "activity, negative = inhibition": "inactive: -2.68%"},
      {"smiles": "CSc1ccccc1OCc1cc(C(=O)NCCN2CCCc3ccccc32)no1", "Potency": "inconclusive [inhibitor, single point]"},
      {"smiles": "CC(C)Cc1ccc(CN2CCCC(NC(=O)c3ccnn3C)C2)cc1", "note": "(configuration not stated)", "Potency": "inconclusive [inhibitor, single point]"},
      {"smiles": "O=C(Oc1ccc(Oc2ccccc2)cc1)N1CCC(O)CC1", "activity, negative = inhibition": "inactive: -16.4%"},
      {"smiles": "CC1CN(C(=S)SCC(=O)c2ccc(Cl)cc2)CC(C)O1", "note": "(configuration not stated)", "Potency": "inconclusive [activator, single point]"},
      {"smiles": "Clc1ccc(-c2nc3n(n2)Cc2ccccc2-3)cc1", "activity, negative = inhibition": "inactive: -6.95%"},
      {"smiles": "O=C(CCCOc1ccc(Cl)cc1Cl)N/N=C/c1ccccc1", "Potency": "inconclusive [inhibitor, partial curve, poor fit]"}
    ]}
  ]
}
